From the supplement of paper PMC12217912 come the findings set out here.

First the molecules themselves.
B1: TEV protease; numbered along this chain (parent)
chain: MGESLFKGPRDYNPISSSICHLTNESDGHTTSLYGIGFGPFIITNKHLFRRNNGTLVVQSLHGVFKVKDTTTLQQHLVDGRDMIIIRMPKDFPPFPQKLKFREPQREERICLVTTNFQTKSMSSMVSDTSCTFPSGDGIFWKHWIQTKDGQCGSPLVSTRDGFIVGIHSASNFTNTNNYFTSVPKNFMELLTNQEAQQWVSGWRLNADSVLWGGHKVFMVKPEEPFQPVKEATQL

In the test the parent is B1. Kind of test: raw area under fraction-flipped curve 0-4 h after induction (AUC4h, not background-subtracted), DNA-recorder readout of cleavage of the substrate (dimensionless); higher = more cleavage of the substrate by the protease variant. The conditions noted are these: temperature: 34 °C; time window: 0-4 h after rhamnose induction.

Some of the results follow. Sequences were assembled here from the parent chain. Inactive controls read about 0.05.
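Further: Bxb1 expression induced with 0.2% (w/v) L-rhamnose at OD600 near 0.5, cultures sampled hourly, flipped fraction per protease–substrate barcode pair counted by paired-end Illumina sequencing.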

MGESLFKGPRDYNPISSSICHLTNESDGHTTSLYGIGFGPFIITNKHLFRRNNGTLVVQSLHGVFKVKDTTTLQQHLVDGRDMIIIRMPKDFPPFPQKLKFREPQREERICLVTTNFQTKSMSSMVSDTSCTFPSGDGIFWKHWIQTKDGQCGSPLVSTRDGFIVGIHSASNFTNTNNYFTSVPKNFMELLTNQEAQQWVSGWRLNADSVLWGGHKVFMVYPEEPFQPVKEATQL [K221Y]: the “area with substrate ENLYDQS” value was determined as 0.0845, the “area with substrate ENLYEQS” value was 0.0631, the “area with substrate ENLYGQS” value came to 0.0701 and the “area with substrate ENLYHQS” value came to 0.0564. In addition, the “area with substrate ENLYKQS” value was 0.059, the “area with substrate ENLYLQS” value is 0.0652, the “area with substrate ENLYMQS” value is 0.087 and the “area with substrate ENLYNQS” value was 0.0582. Besides, the “area with substrate ENLYPQS” value stood at 0.0636, the “area with substrate ENLYQQS” value is 0.0591, the “area with substrate ENLYSQS” value came to 0.0755 and the “area with substrate ENLYTQS” value stood at 0.0679. The “area with substrate ENLYVQS” value turned out to be 0.106 and the “area with substrate ENLYWQS” value came out at 0.0672.
Consider MGESLFKGPRDYNPISSSICHLTNESDGHTTSLYLIGFGPFIITNKHLFRRNNGTLVVQSLHGVFKVKDTTTLQQHLVDGRDMIIIRMPKDFPPFPQKLKFREPQREERICLVTTNFQTKSMSSMVSDTSCTFPSGDGIFWKHWIQTKDGQCGSPLVSTRDGFIVGIHSASNFTNTNNYFTSVPKNFMELLTNQEAQQWVSGWRLNADSVLWGGHKVFMVKPEEPFQPVKEATQL [G35L], for which the “area with substrate ENLYEQS” value was found to be 0.0348, the “area with substrate ENLYIQS” value stood at 0.0476, the “area with substrate ENLYKQS” value came out at 0.0621 and the “area with substrate ENLYVQS” value was found to be 0.0509.
With MGESLFKGPRDYNPISSSICHLTNESDGHTTSLYGIGFGPFIITNKHLFRRNNGTLVVQSLHGVFKVKDTTTLQQHLVDGRDMIIIRMPKDFPPFPQKLKFREPQREERICLVTTNFQTKSMSSMVSDTSCTFPSGDGIFWKHWIQTKDGQCGSPLVSTRDGFIVGIHSASNFTNTNNYFTSVPKNFMELLTNQEAQQWVSGWRLNADSVLWGGHKVFMVKPEEPFPPVKEATQL [Q227P], the “area with substrate ENLYDQS” value came out at 0.059, the “area with substrate ENLYEQS” value came to 0.0506, the “area with substrate ENLYGQS” value was 0.0774 and the “area with substrate ENLYKQS” value stood at 0.0327. Besides, the “area with substrate ENLYLQS” value is 0.0915, the “area with substrate ENLYMQS” value worked out at 0.0849, the “area with substrate ENLYNQS” value came to 0.0698 and the “area with substrate ENLYPQS” value was found to be 0.0715. Further, the “area with substrate ENLYRQS” value was found to be 0.0554, the “area with substrate ENLYTQS” value came out at 0.0834, the “area with substrate ENLYVQS” value was determined as 0.125 and the “area with substrate ENLYWQS” value turned out to be 0.0832. Moreover, the “area with substrate ENLYYQS” value is 0.0603.
For MGESLFKGPRDYNPISSSICHLTNESDGHTTSLYGIGFGPFIITNKHLFRRNNGTLVVQSLHGVFKVKDTTTLQQHLVDGRDMIIIRMPKDFPPFPQKLKFREPQREERICLVTTNFQTKSMSSMVSDTSCTFPSGDGIFWKHWIQTKDGQCGSPLVSTRDGFIVGIHSASNFTNTNNYFTSVPKNFMELLTNQEAQQWVSGWRLNADSVLWGGHKVFMVKPEEPFEPVKEATQL [Q227E], the “area with substrate ENLYDQS” value came out at 0.0674, the “area with substrate ENLYEQS” value was 0.0845, the “area with substrate ENLYGQS” value turned out to be 0.078 and the “area with substrate ENLYIQS” value worked out at 0.144. Also, the “area with substrate ENLYKQS” value turned out to be 0.0552, the “area with substrate ENLYMQS” value was determined as 0.106, the “area with substrate ENLYNQS” value was determined as 0.0701 and the “area with substrate ENLYPQS” value worked out at 0.0655. The “area with substrate ENLYQQS” value is 0.0701, the “area with substrate ENLYSQS” value was found to be 0.0516, the “area with substrate ENLYTQS” value came to 0.0787 and the “area with substrate ENLYWQS” value was determined as 0.0809. Moreover, the “area with substrate ENLYYQS” value came out at 0.0588.
As to MGESLFKGPRDYNPISSSICHLTNESDGHTTSLYGIGFGPFIITNKHLFRRNNGTLVVQSLHGVFKVKDTTTLQQHLVDGRDMIIIRMPKDFPPFPQKLKFREPQREERICLVTTNFQTKSMSSMVSDTSCTFPSGDGIFWKHWIQTKDGQCGSPLVSTRDGFIVGIHSASNFTNTNNYFTSVPKNFMELLTNQEAQQWVSGWRNNADSVLWGGHKVFMVKPEEPFQPVKEATQL [L205N], the “area with substrate ENLYDQS” value was 0.0816, the “area with substrate ENLYEQS” value amounted to 0.0589, the “area with substrate ENLYGQS” value was found to be 0.0318 and the “area with substrate ENLYIQS” value was found to be 0.0518. Moreover, the “area with substrate ENLYNQS” value was 0.0872 and the “area with substrate ENLYWQS” value was found to be 0.0551.
On to MGPSLFKGPRDYNPISSSICHLTNESDGHTTSLYGIGFGPFIITNKHLFRRNNGTLVVQSLHGVFKVKDTTTLQQHLVDGRDMIIIRMPKDFPPFPQKLKFREPQREERICLVTTNFQTKSMSSMVSDTSCTFPSGDGIFWKHWIQTKDGQCGSPLVSTRDGFIVGIHSASNFTNTNNYFTSVPKNFMELLTNQEAQQWVSGWRLNADSVLWGGHKVFMVKPEEPFQPVKEATQL [E3P], for which the “area with substrate ENLYEQS” value is 0.0685, the “area with substrate ENLYHQS” value worked out at 0.0656, the “area with substrate ENLYIQS” value is 0.15 and the “area with substrate ENLYKQS” value amounted to 0.0543. In addition, the “area with substrate ENLYLQS” value is 0.0887, the “area with substrate ENLYMQS” value is 0.0702, the “area with substrate ENLYNQS” value came to 0.084 and the “area with substrate ENLYPQS” value was 0.0678. Moreover, the “area with substrate ENLYSQS” value is 0.0653, the “area with substrate ENLYWQS” value was found to be 0.073 and the “area with substrate ENLYYQS” value was 0.0601.
MGESLFKGPRDYNPISSSICHLTNESDGHTTSLYGIGFGPFIITNKHLFRRNNGTLVVQSLHGVFKVKDTTTLQQHLVDGRDMIIIRMPKDFPPFPQKLKFREPQREERICLVTTNFQTKSMSSMVSDTSCTFPSGDGIFWKHWIQTKDGQCGSPLVSTRDGFIVGIHSASNFTNTNNYFTSVPKNFMELLTNQEAQQWVSGWRLNADSGLWGGHKVFMVKPEEPFQPVKEATQL [V210G]: the “area with substrate ENLYDQS” value is 0.0561, the “area with substrate ENLYEQS” value was found to be 0.059, the “area with substrate ENLYHQS” value is 0.0572 and the “area with substrate ENLYNQS” value turned out to be 0.0634. The “area with substrate ENLYPQS” value amounted to 0.0747, the “area with substrate ENLYRQS” value came to 0.0601, the “area with substrate ENLYTQS” value turned out to be 0.0593 and the “area with substrate ENLYVQS” value was 0.0938. For the same variant, the “area with substrate ENLYWQS” value was 0.057.
On to MGESLFKGPRDYNPISSSICHLTNESDGHTTSLYGIGFGPFIITNKHLFRRNNGTLVVQSLHGVFKVKDTTTLQQHLVDGRDMIIIRMPKDFPPFPQKLKFREPQREERICLVTTNFQTKSMSSMVSDTSCTFPSGDGIFWKHWIQTKDGQCGSPLVSTRDGFIVGIHSASNFTNTNNYFTSVPKNFMELLTNQEAQQWVSGWRLNADSVLWGGHKVFMVKPEEPFQPLKEATQL [V229L], for which the “area with substrate ENLYDQS” value is 0.0587, the “area with substrate ENLYEQS” value is 0.0586, the “area with substrate ENLYGQS” value is 0.0763 and the “area with substrate ENLYHQS” value was 0.0702. Also, the “area with substrate ENLYIQS” value was found to be 0.119, the “area with substrate ENLYKQS” value came out at 0.0547, the “area with substrate ENLYMQS” value came out at 0.0977 and the “area with substrate ENLYNQS” value stood at 0.0982. The “area with substrate ENLYQQS” value was 0.056, the “area with substrate ENLYRQS” value turned out to be 0.0614, the “area with substrate ENLYSQS” value was 0.0672 and the “area with substrate ENLYTQS” value amounted to 0.102. Also, the “area with substrate ENLYWQS” value was 0.0942 and the “area with substrate ENLYYQS” value came to 0.0746.
With MGESLFKGPRDYNPISSSICHLTNESDGHTTSLYGIGFGPFIITNKHLFRRNNGTLVVQSLHGVFKVKDTTTLQQHLVDGRDMIIIRMPKDFPPFPQKLKFREPQREERICLVTTNFQTKSMSSMVSDTSCTFPSGDGIFWKHWIQTKDGQCGSPLVSTRDGFIVGIHSASNFTNTNNYFTSVPKNFMELLTNQEAQQWVSGWRLNADSVLWGGHKVFMVKPEEPFQPVGEATQL [K230G], the “area with substrate ENLYDQS” value was found to be 0.0585, the “area with substrate ENLYEQS” value amounted to 0.0409, the “area with substrate ENLYGQS” value came to 0.048 and the “area with substrate ENLYHQS” value turned out to be 0.0605. Also, the “area with substrate ENLYIQS” value worked out at 0.0983, the “area with substrate ENLYKQS” value came out at 0.0701, the “area with substrate ENLYLQS” value was 0.075 and the “area with substrate ENLYNQS” value was determined as 0.068. Moreover, the “area with substrate ENLYPQS” value was found to be 0.0765, the “area with substrate ENLYQQS” value is 0.0606, the “area with substrate ENLYTQS” value was determined as 0.0826 and the “area with substrate ENLYVQS” value turned out to be 0.128. In addition, the “area with substrate ENLYWQS” value is 0.0984 and the “area with substrate ENLYYQS” value amounted to 0.0717.
With MGESLFKGPRDYNPISSSICHLTNESDGHTTSLYGIGFGPFIITSKHLFRRNNGTLVVQSLHGVFKVKDTTTLQQHLVDGRDMIIIRMPKDFPPFPQKLKFREPQREERICLVTTNFQTKSMSSMVSDTSCTFPSGDGIFWKHWIQTKDGQCGSPLVSTRDGFIVGIHSASNFTNTNNYFTSVPKNFMELLTNQEAQQWVSGWRLNADSVLWGGHKVFMVKPEEPFQPVKEATQL [N45S], the “area with substrate ENLYEQS” value was determined as 0.0612, the “area with substrate ENLYGQS” value was determined as 0.0781, the “area with substrate ENLYHQS” value came to 0.0666 and the “area with substrate ENLYIQS” value is 0.0735. The “area with substrate ENLYKQS” value worked out at 0.0442, the “area with substrate ENLYMQS” value worked out at 0.0608, the “area with substrate ENLYNQS” value came out at 0.0492 and the “area with substrate ENLYPQS” value worked out at 0.061. Besides, the “area with substrate ENLYQQS” value is 0.0664, the “area with substrate ENLYRQS” value was 0.0629, the “area with substrate ENLYVQS” value came out at 0.0775 and the “area with substrate ENLYWQS” value turned out to be 0.0599.
